Measurements: the BET-seq Pho4 binding data (Le et al. 2018)
This is one part of the list. These are noisy estimates, calculated here from bound and input reads.

Biological target: T1, Pho4 (S. cerevisiae) (UniProt P07270)
T1 sequence: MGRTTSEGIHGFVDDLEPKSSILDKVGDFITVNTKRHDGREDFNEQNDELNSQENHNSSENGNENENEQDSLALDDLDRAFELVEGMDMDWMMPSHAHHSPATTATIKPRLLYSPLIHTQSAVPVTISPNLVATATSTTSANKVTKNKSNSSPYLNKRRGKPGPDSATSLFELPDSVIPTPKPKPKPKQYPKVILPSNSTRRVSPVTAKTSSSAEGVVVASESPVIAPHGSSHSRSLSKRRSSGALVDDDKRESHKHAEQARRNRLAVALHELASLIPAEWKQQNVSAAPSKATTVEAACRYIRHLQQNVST
Experiment: relative binding free energy (BET-seq); higher = weaker binding
Conditions: reference: library average

Sequence | relative binding free energy
AGGGGCACGTGTTAAG | -0.08 kcal/mol
GCGTTCACGTGGGTAT | 0.23 kcal/mol
TTGGACACGTGGCATT | 0.03 kcal/mol
GATGGCACGTGTGTGT | 0.01 kcal/mol
TGCATCACGTGGGTTG | 0.09 kcal/mol
GTTAGCACGTGGTGAC | -0.1 kcal/mol
TTGGCCACGTGTTGAT | -0.13 kcal/mol
TTTAACACGTGCGAGG | -0.01 kcal/mol
GGAATCACGTGTTTCG | 0.25 kcal/mol
GTCATCACGTGGGGTA | 0.02 kcal/mol
CTTTACACGTGTGTTT | 0.07 kcal/mol
TTGAACACGTGGGGTG | -0.18 kcal/mol
AGAGGCACGTGGTGGA | -0.14 kcal/mol
GGTGTCACGTGATGCG | 0.23 kcal/mol
TATAACACGTGGGAAA | -0.02 kcal/mol
GCGGGCACGTGAAGCG | 0.32 kcal/mol
GACTGCACGTGGTTAG | 0.04 kcal/mol
AGTAGCACGTGTACTT | 0.1 kcal/mol
ATGTACACGTGATTAG | 0.21 kcal/mol
GTATTCACGTGAGAGT | 0.32 kcal/mol
GTGAGCACGTGGGACA | -0.18 kcal/mol
ATTTGCACGTGCTGGT | 0.03 kcal/mol
AGAGGCACGTGTTCGG | -0.2 kcal/mol
TCTTACACGTGTTAGT | 0.25 kcal/mol
CTCATCACGTGGTTGG | 0.09 kcal/mol

Sequence | relative binding free energy
TTTACCACGTGTAGGT | 0.09 kcal/mol
GGTTTCACGTGGAAAT | 0.45 kcal/mol
GATGTCACGTGGTACT | 0.16 kcal/mol
GTAGACACGTGGGTCT | -0.14 kcal/mol
TGGGTCACGTGTGATA | 0.23 kcal/mol
TTATGCACGTGTGCCT | 0.03 kcal/mol
ATTTTCACGTGGACGA | 0.27 kcal/mol
GGTTACACGTGATTGT | 0.16 kcal/mol
GTCATCACGTGTTGGG | 0.21 kcal/mol
AGTGGCACGTGATGGT | 0.02 kcal/mol
AGGGTCACGTGCGCTG | -0.14 kcal/mol
TGCTTCACGTGGGTGT | 0.03 kcal/mol
TACATCACGTGAGGTG | 0.31 kcal/mol
CTAGACACGTGTTAGG | 0.08 kcal/mol
TGGGTCACGTGGCCTG | -0.01 kcal/mol
AAGTTCACGTGTGGAC | 0.44 kcal/mol
TTGGACACGTGGCCGG | -0.13 kcal/mol
CAAAGCACGTGGTGGG | -0.17 kcal/mol
GTCTTCACGTGTAGTT | 0.23 kcal/mol
GCGTACACGTGGGCGT | -0.04 kcal/mol
GTATACACGTGGTTGT | -0.01 kcal/mol
TTGGGCACGTGTGTGG | -0.09 kcal/mol
GAGTTCACGTGGTCAT | 0.18 kcal/mol
GGTAGCACGTGAGAGA | 0.26 kcal/mol
TTAAGCACGTGGGGGA | -0.21 kcal/mol

Sequence | relative binding free energy
TGTTACACGTGAGTAT | 0.27 kcal/mol
CAAAGCACGTGTGGTT | -0.11 kcal/mol
GAAGTCACGTGAGTGT | 0.4 kcal/mol
TGAGTCACGTGTAAGT | 0.16 kcal/mol
CCTGTCACGTGTGGGG | 0.01 kcal/mol
GAATTCACGTGTTGGT | 0.42 kcal/mol
AAAGTCACGTGTATTA | 0.01 kcal/mol
ATAGGCACGTGCTAGT | -0.14 kcal/mol
CGTCGCACGTGGGTTT | -0.25 kcal/mol
TAGGCCACGTGGTGTA | -0.28 kcal/mol
CAAGTCACGTGGTTTG | 0.07 kcal/mol
TTTAACACGTGGGCGG | -0.2 kcal/mol
GATAGCACGTGATGTA | 0.11 kcal/mol
TTAAGCACGTGTACTG | -0.06 kcal/mol
GACGGCACGTGTTTAT | 0.12 kcal/mol
ATTAGCACGTGGCGGG | -0.16 kcal/mol
TTCTGCACGTGGCGCG | 0 kcal/mol
TAGTACACGTGTTCGA | 0.23 kcal/mol
TAATACACGTGCTTGG | -0.04 kcal/mol
TGTGACACGTGTCTTT | 0.02 kcal/mol
AGGGGCACGTGATGTG | -0.01 kcal/mol
TGTTACACGTGCTTGG | 0.04 kcal/mol
GTAACCACGTGTGTGG | -0.06 kcal/mol
GTATGCACGTGATATA | 0.2 kcal/mol
TGATACACGTGTTTCT | 0 kcal/mol

Sequence | relative binding free energy
GTTGACACGTGTGTAG | 0.1 kcal/mol
CTGTGCACGTGTGCAT | -0.1 kcal/mol
TAAAGCACGTGTGTGA | -0.05 kcal/mol
CTAGTCACGTGTTTTG | 0.1 kcal/mol
ATTTTCACGTGTAAGT | 0.25 kcal/mol
TGAAGCACGTGAGTAG | 0.09 kcal/mol
TTGTACACGTGCCAGT | 0.09 kcal/mol
TGAATCACGTGTCTTT | 0.14 kcal/mol
AATTACACGTGTAGGT | 0.25 kcal/mol
GTGGTCACGTGAATGG | 0.3 kcal/mol
GGTAGCACGTGTTGAT | -0.03 kcal/mol
GATCTCACGTGATGGG | 0.29 kcal/mol
ATGATCACGTGGTGCG | 0.12 kcal/mol
GGGGACACGTGTCGTC | 0.15 kcal/mol
TGTCGCACGTGAATGT | 0.23 kcal/mol
TTAGACACGTGTTGAA | 0.08 kcal/mol
ACATGCACGTGTTTTG | 0.01 kcal/mol
GCATGCACGTGAGGGG | 0.14 kcal/mol
TGTTGCACGTGTCTAG | -0.05 kcal/mol
GCGTCCACGTGTGGGT | 0.14 kcal/mol
CAGGGCACGTGGGGGC | -0.26 kcal/mol
GGCACCACGTGGGGGA | -0.21 kcal/mol
CGTTTCACGTGGGTGG | 0.18 kcal/mol
CTTTTCACGTGGTCTG | 0.05 kcal/mol
AAATGCACGTGGGTAA | -0.15 kcal/mol

Sequence | relative binding free energy
CTGGACACGTGGTTTT | 0.07 kcal/mol
ATAAGCACGTGGGGCG | -0.14 kcal/mol
GTTTTCACGTGCTTTG | 0.26 kcal/mol
AGAGGCACGTGGGAGC | -0.19 kcal/mol
AAGAACACGTGGTGTT | -0.12 kcal/mol
CTTGGCACGTGGTCGG | -0.34 kcal/mol
CTGTGCACGTGGGAGG | -0.17 kcal/mol
TTGGCCACGTGTAATG | 0.09 kcal/mol
GAAGTCACGTGTCGGG | 0.09 kcal/mol
TTTGTCACGTGCATGA | 0.01 kcal/mol
GCCGACACGTGTGGGG | 0.05 kcal/mol
ACCTGCACGTGTGGGT | -0.14 kcal/mol
TTGATCACGTGAGTCT | 0.35 kcal/mol
TGAGTCACGTGGGCGG | 0.07 kcal/mol
TTTACCACGTGGTGTT | -0.1 kcal/mol
TTAAGCACGTGTGGAA | 0.1 kcal/mol
ATCGTCACGTGTGATG | 0.21 kcal/mol
AGGTACACGTGTTTGG | 0.04 kcal/mol
GATTGCACGTGGATGG | 0.1 kcal/mol
GCGTGCACGTGTATAG | -0.01 kcal/mol
TTTTGCACGTGGTGCA | -0.17 kcal/mol
GAGGTCACGTGGGATG | 0.13 kcal/mol
GTAGCCACGTGAGGGT | 0.2 kcal/mol
GGTTGCACGTGAAGGG | 0.27 kcal/mol
GGGTTCACGTGGATGC | 0.37 kcal/mol

Sequence | relative binding free energy
ATATTCACGTGTGATA | 0.24 kcal/mol
GATGTCACGTGAGGTC | 0.34 kcal/mol
ACATACACGTGTGGGG | 0.06 kcal/mol
AATTTCACGTGTACTG | 0.23 kcal/mol
CGTTACACGTGATTTT | 0.12 kcal/mol
TTAGACACGTGGATTG | -0.04 kcal/mol
CGAGTCACGTGGCGGT | -0.04 kcal/mol
TAGGACACGTGTGGGG | 0.05 kcal/mol
ACGGGCACGTGTGGGT | 0 kcal/mol
GTCGTCACGTGGAGAG | 0 kcal/mol
AAGTTCACGTGATGTT | 0.49 kcal/mol
GGGGGCACGTGATGCG | -0.03 kcal/mol
CATTTCACGTGATGTA | 0.06 kcal/mol
TAGGCCACGTGGGGTT | -0.19 kcal/mol
GATCGCACGTGTTGTG | 0.03 kcal/mol
TGTGACACGTGACGGT | 0.02 kcal/mol
AAGGTCACGTGGGCGC | 0.04 kcal/mol
AGTAACACGTGGTATG | -0.17 kcal/mol
GTGCGCACGTGGTGAC | -0.07 kcal/mol
GGTCGCACGTGGGAAG | -0.14 kcal/mol
TGTTTCACGTGGGGCC | 0.25 kcal/mol
